Assay results as given in PubChem BioAssay AID1347417 (National Center for Advancing Translational Sciences (NCATS), 2020).
About 5,300 (4.4%) of roughly 120,000 compounds were called active. The inconclusive results got no clear call from the source; some entries with a clear call stand among them for comparison. The call rests on the fitted dose curve; in most records, active means well fitted inhibition curve with a large enough effect; inconclusive means small, poorly fitted or top-dose-only effect; inactive means no such curve, though single readings can be large or run the other way. A potency beside an inconclusive call is a rough fit, not a confirmed value.

Assay: qHTS Primary assay for Inhibitors of Plasmodium falciparum Dd2 growth in vitro; further: nearly all actives have a fitted effect of over 65% in size
Conditions: P. falciparum Dd2 growth, SYBR Green, 72 h; series mostly up to 28.9 µM
Procedure, shortened: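 Readout: SYBR Green fluorescence, 485 nm excitation, 535 nm emission, after ~16 h lysis at 37C. Before that, Dd2-infected red cells (2.5% hematocrit) grew 72 h with compound, 29 uM top final concentration.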
Potency means the concentration at half of the fitted maximal effect; tags describe the fitted curve by direction and shape.

Compound	Potency
CC1(C)C[C@H](NC(=O)c2ccccc2)[C@@]2(CCC(=O)NC3CC3)CC[C@](C)(O)C[C@@H]12	inactive
COc1cccc(CC(=O)N2C[C@@H](Oc3ccccc3)C[C@H]2C(=O)N2CCOCC2)c1	inactive
Cc1ccccc1-c1[nH]nc2ncc(-c3ccccc3O)nc12	inconclusive: 12.6 µM [inhibitor, single point]
O=C1NC2(CCN(Cc3ccc(F)cc3)C2)OCc2ccccc21 (stereo unspecified)	inconclusive: 2.24 µM [inhibitor, partial curve, poor fit]
CCCCc1ccc(NC(=O)CN2C(=O)NC3(CCS(=O)(=O)CC3)C2=O)cc1	inconclusive: 10 µM [inhibitor, single point]
O=C(NCCc1ccc(Cl)cc1)c1nc(-c2cccc(C(F)(F)F)c2)c2ccccn12	inconclusive: 17.8 µM [inhibitor, single point]
O=c1n(-c2cccc(Cl)c2)nc2n1CCN(Cc1ccc(F)cc1)C2	inconclusive: 17.8 µM [inhibitor, single point]
COc1cccc(C(=O)NCC2CCCN(Cc3ccc(C)s3)C2)c1OC (stereo unspecified)	inconclusive: 10 µM [inhibitor, single point]
COCCCNC(=O)c1cnc2n[nH]c(-c3ccccc3)c2n1	inconclusive: 5.62 µM [inhibitor, single point]
Cc1ccc(NC(=O)NC(C)c2c(-n3cccc3)sc(C)c2C)c(C)c1 (stereo unspecified)	inconclusive: 10 µM [inhibitor, single point]
CC(=O)N1CCN(Cc2ccc(C(F)(F)F)c(F)c2)CC(O)C1 (stereo unspecified)	inactive
COCc1cc(C[C@@H]2C[C@H](NC3CCC3)C2(C)C)no1	inactive
COc1ccc(C(=O)N2CC(N(C)c3ccccc3C)C2)cc1	inconclusive: 3.55 µM [inhibitor, partial curve, poor fit]
COc1ccc(-c2cc(N3CCCN(C(=O)c4cccc(F)c4)CC3)n[nH]2)cc1	inconclusive: 0.794 µM [inhibitor, partial curve, poor fit]
COCCNC[C@@H]1C=C(C)[C@H](Cc2nnc(-c3ccc(OC)cc3)o2)C[C@H]1C(C)C	inconclusive: 3.98 µM [inhibitor, full curve, poor fit]
COCC(=O)N1CCN(C2CCN(Cc3ccccn3)C2=O)CC1 (stereo unspecified)	inactive
COc1ccc(Nc2ncc(C(=O)Nc3cccc(OC)c3)c3ccccc23)cc1	inconclusive: 10 µM [inhibitor, single point]
Cc1ccc(CN2C[C@H]3CN(Cc4ccc(C(=O)O)cc4)CCN3C2=O)cc1	inactive
Cc1ccc(Cl)cc1N(C)C(=O)c1sc2nc3n(c(=O)c2c1C)CCCC3	inconclusive: 12.6 µM [inhibitor, partial curve]
COc1cc(C(=O)NC2CCCc3c2[nH]c2ccccc32)cc(OC)c1OC (stereo unspecified)	inconclusive: 1.41 µM [inhibitor, partial curve, poor fit]
Cc1ccc(NC(=O)CSc2nc(=O)n(Cc3ccncc3)c3c2CCC3)cc1Cl	inconclusive: 17.8 µM [inhibitor, single point]

Compound	Potency
CN(Cc1cccn1C)CC1CC1	inactive
CNC(=O)[C@@H](c1ccccc1)N1CCC[C@H]1C(=O)NCCc1c[nH]c2ccccc12	inactive
Cc1ccccc1C(=O)NCc1nnc2cc(-c3nc(C4CC4)no3)ccn12	inactive
O=C(NCc1ccccc1)c1ccccc1OC1CN(C2CCC2)C1	inconclusive: 5.62 µM [inhibitor, partial curve]
O=C(NC1CCCCCC1)c1ccc2c(c1)CC(=O)N2Cc1ccc(F)cc1	inconclusive: 3.98 µM [inhibitor, single point]
Cc1cn2nc(C(=O)N3CCC(NC(=O)c4ccc(C)c(F)c4)CC3)cc2c(=O)[nH]1	inconclusive: 3.55 µM [inhibitor, partial curve, poor fit]
COc1ccc(NC(=O)[C@@H]2COCC(=O)N2Cc2ccc(OC)c(OC)c2)cc1Cl	inactive
c1ccc(-n2cc(CN3CCCN(Cc4cccs4)CC3)nn2)cc1	inconclusive: 11.2 µM [inhibitor, single point]
Cc1cc(N2CCN(C)CC2)nc2ccc(NC(=O)Nc3ccc(F)cc3)cc12	inconclusive: 11.2 µM [inhibitor, single point]
CC(=O)N1CCCc2cc(S(=O)(=O)N3CCCC(C(=O)Nc4ccc(F)cc4F)C3)ccc21 (stereo unspecified)	inconclusive: 17.8 µM [inhibitor, single point]
Cc1nc(-c2cn(C3CCCN(C(=O)c4ccc(F)cc4)C3)nn2)no1 (stereo unspecified)	inconclusive: 7.94 µM [inhibitor, partial curve, poor fit]
CCN(c1ccccc1)c1ncnc2c1cnn2-c1ccc(OC)cc1	inconclusive: 12.6 µM [inhibitor, single point]
CCOC(=O)c1ccc(NC(=O)c2noc3c2CCCC3)cc1	inconclusive: 10 µM [inhibitor, partial curve, poor fit]
COc1cc(F)ccc1CN1CCCC12Cc1ccccc1CNC2=O (stereo unspecified)	inactive
CCOc1ccc(-c2cc3nc(C4CCN(C(=O)OC(C)(C)C)CC4)c(C(=O)Nc4cccc(Cl)c4C)cn3n2)cc1	active: 5.01 µM
O=C1Nc2ccc(-c3ccc(Cl)cc3)cc2C(=O)N2CC[C@H](NS(=O)(=O)c3cccs3)C[C@@H]12	inconclusive: 7.94 µM [inhibitor, partial curve]
O=C(O)C[C@@H]1CCN(C(=O)COc2ccccc2)C[C@@H]1CCN1CCN(c2ccccn2)CC1	inconclusive: 5.62 µM [inhibitor, partial curve]
COc1ccc(NC(=O)O[C@@H]2CO[C@H]3[C@@H]2OC[C@@H]3n2nnnc2Sc2ccccc2)cc1	inconclusive: 1.78 µM [inhibitor, partial curve, poor fit]
COc1cccc(N2C(=O)NC(=NC3CCCC3)C23CCCN([S+](=O)([O-])c2cccs2)C3)c1 (stereo unspecified)	inconclusive: 12.6 µM [inhibitor, single point]
CCc1nc(-c2c3n(c(=O)n(Cc4ccc(C)cc4C)c2=O)CCCC3)no1	inactive
